Among all 43,000 compounds or so, about 200 (0.47%) were called active. About 12% were inconclusive and are not listed. Calls follow the shape of the dose curve; as a rule, active = well fitted cell-killing curve with a large enough effect; inconclusive = small, poorly fitted or top-dose-only effect, or effect the other way; inactive = flat fitted curve, though single readings scatter. The list shows a part of the results.
% is scaled to controls: 0 for no effect and ±100 for the full control effect.

This assay can be described thus: Cell viability qHTS assay in S16 Pmp22-F2sN cells. Also: nearly all actives have a fitted effect of over 65% in size. The conditions noted are these: S16 Pmp22-F2sN Schwann cells viability, CellTiter-Glo, 24 h; series mostly up to 57.5 µM; activity change, negative = cytotoxicity: at the top concentration. In a few lines: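 Used to flag compounds lowering reporter output through toxicity, this quantitative HTS measures ATP-based CellTiter-Glo luminescence in S16 Pmp22-F2sN Schwann cells after 24 h compound exposure at 37C.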
Background: In qHTS, concentration-response curves come from the screen itself.
For the molecule `CCCn1c(=N)c(C(=O)NCc2ccco2)cc2c(=O)n3cc(C)ccc3nc21`, the “activity change, negative = cytotoxicity” value is inactive: 14.1%.

In the case of `Oc1c(C(c2ccc(Cl)cc2Cl)N2CCN(Cc3ccccc3)CC2)sc2nc(-c3ccco3)nn12` (centres undefined), the “activity change, negative = cytotoxicity” value was inactive: 3.94%. The same measure for `CC(=O)c1cccc(NC(=O)c2cc3sc(Cl)cc3n2C)c1`: inactive: 1.42%; for `CCOCCCNC(=O)C(c1ccc(Cl)cc1)N(Cc1ccc2c(c1)OCO2)C(=O)c1ccc(NC(C)=O)cc1` (centres undefined): inactive: -19.9%; for `CCOc1ccc(C(=O)Nc2ccc(C(=O)OCc3cc(=O)n4c(C)csc4n3)cc2)cc1`: inactive: -23.3%. To `Cc1ccc(CNC(=O)c2ccc(N3Cc4ccccc4Oc4ncccc43)s2)cc1` belongs inactive: -14.4%; to `COCCNC(=O)CCCn1c(SCc2ccccc2C)nc2c(sc3ccccc32)c1=O`, inactive: -27.2%; to `CCn1cc(/C=C(\NC(=O)c2ccccc2Cl)C(=O)NCCCn2ccnc2)c2ccccc21`, inactive: -1.59%. To `Cc1ccc(C2N3CC4(C)CN2CC(c2ccccc2)(C3)C4=O)cc1` (centres undefined) belongs inactive: 7.14%; to `CCOc1ccc(NC(=O)Cn2nc(CC)n3c(cc4sccc43)c2=O)cc1`, inactive: 2.6%. Turning to `Cc1ccc2c(c1)c1c(c(=O)n(-c3cccc(Cl)c3)c(=O)n1CC(N)=O)n2C`, the “activity change, negative = cytotoxicity” value is inactive: 3.11%. To `COc1cc(Nc2nc3c(S(=O)(=O)c4cccc(Cl)c4)nnn3c3ccsc23)cc(OC)c1` belongs inactive: 3.68%.

As for `COc1ccc(OCC(=O)Nc2cc(-c3nc4ccccc4o3)ccc2Cl)cc1`, the “activity change, negative = cytotoxicity” value is inactive: 12.9%.

On to `COC(=O)c1ccccc1NC(=O)Cn1c(=O)n(-c2ccc(C)cc2)c(=O)c2ccccc21`, for which the “activity change, negative = cytotoxicity” value was inactive: -6.33%.

Take `Cc1ccccc1OCCSc1nc2ccc(NC(=O)c3ccco3)cc2s1`: the “activity change, negative = cytotoxicity” value was inactive: -2.61%. The same measure for `O=C1Nc2ccccc2C1Cc1ccc(Br)cc1` (centres undefined): inactive: -26.6%. To `CC1CCc2noc(NC(=O)c3ccc([N+](=O)[O-])cc3)c2C1` (centres undefined) belongs inactive: -1.67%; to `Cc1ccc(NC(=O)CN2C(=O)c3ccccc3Sc3ccc(C(=O)N4CCOCC4)cc32)cc1C`, inactive: 11.1%. The same measure for `Cc1ccc(NC(=O)CSc2nc3nccnc3c(=O)n2CCc2c[nH]c3ccccc23)cc1C`: inactive: 8.77%; for `CCOc1ccc(NC(=O)CN(c2ccc(C)cc2)S(=O)(=O)c2cccs2)cc1`: inactive: -1.23%; for `Cc1ccc(-c2nc(CS(=O)(=O)CC(=O)N3CCN(c4ccccc4)CC3)c(C)o2)cc1`: inactive: -1.55%. Take `Cc1cccc(NC(=O)CSc2nc3ccc(NC(=O)CCc4ccccc4)cc3s2)c1`: the “activity change, negative = cytotoxicity” value is inactive: 5.62%. The same measure for `COc1ccc(CNC(=O)c2cc3c(=O)n(Cc4ccc(OC)cc4)ccc3nc2C)cc1`: inactive: 16.1%; for `COc1cc(Br)cc2cc(S(=O)(=O)c3ccccc3)c(=O)oc12`: inactive: -3.63%; for `CCCSCCCNC(=O)c1sc2nc(C)cc(C)c2c1-n1cccc1`: inactive: -9.43%. The same measure for `Cc1ccc(-c2noc(-c3cccnc3N(C)Cc3ccc(Cl)cc3)n2)cc1`: inactive: 1.24%; for `COc1cccc(NCc2nnc3n2CCCCC3)c1`: inactive: -15.2%. The same measure for `CCc1ccc(C(=O)c2cn(CC(=O)Nc3cc(OC)cc(OC)c3)c3ccc(CC)cc3c2=O)cc1`: inactive: -4.15%. As to `CCOc1ccc(CNCCSc2nnnn2C)cc1`, the “activity change, negative = cytotoxicity” value was inactive: 10.8%. The same measure for `COc1cccc(CNC(=O)c2ccc3nc(CCc4ccccc4)oc3c2)c1OC`: inactive: 11%; for `CCc1cccc(C)c1Nc1c(-c2ccc(N(C)C)cc2)nc2cnccn12`: inactive: -19.6%. To `CCCOc1ccc(CN2C(=O)C(=O)c3cccc(C)c32)cc1` belongs inactive: -7.31%. The same measure for `COc1ccc(-c2nc3ccccc3s2)cc1NC(=O)c1cccc(F)c1`: inactive: 5.37%. As to `Cc1ccc(-n2nc(C)c3c(C)c(CCC(=O)NCc4ccc(Cl)cc4)c(C)nc32)cc1`, the “activity change, negative = cytotoxicity” value was inactive: 12.4%. With `COc1ccc(CNC(=O)C(CC(C)C)NS(=O)(=O)c2ccc3c(c2)CCN3C(C)=O)cc1` (centres undefined), the “activity change, negative = cytotoxicity” value was inactive: -2.56%. The same measure for `COc1ccc(-c2cc(C(=O)Oc3ccc(C#N)cc3)no2)cc1`: inactive: 5.64%; for `CCCc1cc(=O)[nH]c(SCc2nc(-c3ccccc3)no2)n1`: inactive: -2.71%; for `O=S1(=O)c2ccccc2N(Cc2ccc(F)cc2)c2ccccc21`: inactive: -17.2%.

On to `COc1ccc(Nc2nnc(-n3nc(C)cc3C)c3ccccc23)cc1`, for which the “activity change, negative = cytotoxicity” value is inactive: 4.98%. The same measure for `O=C(NCCOCCn1c(=O)oc2ccccc21)Nc1ccc(F)cc1F`: inactive: 18.6%; for `CC(=O)N1CCc2cc(S(=O)(=O)NC(Cc3ccccc3)C(=O)Nc3cc(C)cc(C)c3)ccc21` (centres undefined): inactive: -8.27%; for `COc1ccccc1N1CCN(Cc2nc(-c3cc(OC)c(OC)c(OC)c3)no2)CC1`: inactive: -0.747%. As for `CC1CCCCN1CCCNC(=O)Cn1ncc2c3ccccc3n(Cc3ccccc3)c2c1=O` (centres undefined), the “activity change, negative = cytotoxicity” value was inactive: 15.8%. To `COc1ccccc1C1C(C(=O)Nc2ccccc2)=C(C)Nc2nc(-c3ccccc3)nn21` (centres undefined) belongs inactive: 2.33%; to `O=C(Cn1ncc2c3ccccc3n(Cc3ccccc3)c2c1=O)NCCCN1CCCCC1`, inactive: 2.19%. The same measure for `Cc1ccc(Cl)cc1N1CCN(C(=O)CCc2nnc3n(C)c(=O)c4ccccc4n23)CC1`: inactive: -3.67%; for `CCN(Cc1ccccc1)C(=O)c1cn(-c2cccc(OC)c2)c(=O)c2ccccc12`: inactive: 8.68%; for `Cc1ccc(NC(=O)CSc2nc3n[nH]c(C)c3c(=N)n2-c2ccccc2C)cc1C`: inactive: -2.06%. To `CCOc1cccc(C2c3c(oc4ccc(F)cc4c3=O)C(=O)N2c2cc(C)ccn2)c1` (centres undefined) belongs inactive: -0.316%.

For the origin of these results see PubChem BioAssay AID1508642 (National Center for Advancing Translational Sciences (NCATS), 2021).
